{"source": "the supplement of paper PMC9446081", "note": "About 220 (0.56%) of roughly 39,000 compounds showed activity. Some of the results follow.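 Note: static incubation at 37 °C against the wild-type strain, values averaged over two biological replicates.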"}
{"system": "Escherichia coli K-12 BW25113", "test": "relative growth (OD600 normalised to plate interquartile mean) (fraction); higher = less growth inhibition, active = 0.2 or less", "conditions": "50 µM; LB; incubation time: overnight (16-24 h)"}
{"smiles": "CC(=O)N[C@H](Cc1ccc2ccccc2c1)C(=O)N[C@H](Cc1ccc(Cl)cc1)C(=O)N[C@H](Cc1cccnc1)C(=O)N[C@@H](CO)C(=O)N[C@@H](Cc1ccc(O)cc1)C(=O)N[C@H](CCCNC(N)=O)C(=O)N[C@@H](CC(C)C)C(=O)N[C@@H](CCCNC(=N)N)C(=O)N1CCC[C@H]1C(=O)N[C@H](C)C(N)=O", "relative growth": "inactive: 0.976"}
{"smiles": "C[C@H](CO)N1C[C@H](C)[C@H](CN(C)Cc2ccccc2F)Oc2cc(C#CC3CC3)ccc2S1(=O)=O", "relative growth": "inactive: 0.916"}
{"smiles": "C[C@@H]1CN([C@@H](C)CO)C(=O)c2cccc(NC(=O)Nc3ccccc3)c2O[C@H]1CN(C)C(=O)Nc1ccc(C(F)(F)F)cc1", "relative growth": "inactive: 0.986"}
{"smiles": "O=c1cc(-c2ccccc2)oc2c(O)c(O)ccc12", "relative growth": "inactive: 0.954"}
{"smiles": "C[C@H](CO)N1C[C@H](C)[C@@H](CN(C)C(=O)N[C@H](C)c2ccccc2)OCc2ccccc2-c2ccccc2C1=O", "relative growth": "inactive: 0.986"}
{"smiles": "CCCCOCCOCCOCc1cc2c(cc1CCC)OCO2", "relative growth": "inactive: 0.859"}
{"smiles": "C[C@@H]1CCCCO[C@@H](CN(C)S(=O)(=O)c2cccs2)[C@H](C)CN([C@H](C)CO)C(=O)c2cc(NC(=O)Nc3ccc(C(F)(F)F)cc3)ccc2O1", "relative growth": "inactive: 1.07"}
{"smiles": "CC(C)NC(=O)N(C)C[C@@H]1Oc2c(NS(=O)(=O)c3ccc(F)cc3)cccc2C(=O)N([C@H](C)CO)C[C@H]1C", "relative growth": "inactive: 1"}
{"smiles": "C[C@@H]1CN([C@@H](C)CO)C(=O)c2cc(NC(=O)C3CCCCC3)ccc2O[C@@H](C)CCCCO[C@@H]1CN(C)C(=O)C1CCCCC1", "relative growth": "inactive: 0.966"}
{"smiles": "Cc1ccc(S(=O)(=O)N(C)C[C@H]2Oc3c(NC(=O)Nc4ccc(C(F)(F)F)cc4)cccc3C(=O)N([C@@H](C)CO)C[C@H]2C)cc1", "relative growth": "inactive: 1.02"}
{"smiles": "C=CCC[C@H](Cc1ccc(F)cc1)C(=O)OC[C@@H](Cc1c[nH]c2ccccc12)NC(=O)[C@H](CC=C)CC(=O)N[C@@H](CO)Cc1ccccc1", "relative growth": "inactive: 1.03"}
{"smiles": "C[C@@H]1CCCCO[C@H](CN(C)Cc2ccc3c(c2)OCO3)[C@@H](C)CN([C@@H](C)CO)C(=O)c2cc(NC(=O)C3CCCCC3)ccc2O1", "relative growth": "inactive: 1.02"}
{"smiles": "COc1ccc(NC(=O)Nc2ccc3c(c2)C(=O)N([C@H](C)CO)C[C@H](C)[C@@H](CN(C)Cc2ccc(C(=O)O)cc2)OCCCC[C@H](C)O3)cc1", "relative growth": "inactive: 0.979"}
{"smiles": "C[C@H]1CN([C@@H](C)CO)C(=O)c2c(c3ccccc3n2C)-c2ccccc2CO[C@H]1CN(C)Cc1ccc(Cl)c(Cl)c1", "relative growth": "inactive: 0.998"}
{"smiles": "C[C@H](CO)N1C[C@H](C)[C@@H](CN(C)Cc2cncnc2)Oc2ncc(C#C[C@@H](C)O)cc2C1=O", "relative growth": "inactive: 0.973"}
{"smiles": "COc1ccc(S(=O)(=O)N(C)C[C@H]2Oc3ccc(NC(=O)CCCN(C)C)cc3CC(=O)N([C@@H](C)CO)C[C@H]2C)cc1", "relative growth": "inactive: 0.994"}
{"smiles": "Cc1cccc2sc(NC(=O)c3ccc(C(C)(C)C)cc3)nc12", "relative growth": "inactive: 0.992"}
{"smiles": "C[C@@H]1CN([C@@H](C)CO)C(=O)c2cccc(NC(=O)C3CC3)c2O[C@@H]1CN(C)Cc1ccc2c(c1)OCO2", "relative growth": "inactive: 0.993"}
{"smiles": "Cc1noc(C)c1NC(=O)Nc1cccc2c1O[C@H](CN(C)Cc1ccc(C(F)(F)F)cc1)[C@@H](C)CN([C@@H](C)CO)C2=O", "relative growth": "inactive: 0.978"}
{"smiles": "C[C@@H]1CN([C@H](C)CO)C(=O)c2cc(NC(=O)Cc3ccccc3)ccc2O[C@@H]1CN(C)Cc1ccc(Cl)c(Cl)c1", "relative growth": "inactive: 1.02"}
{"smiles": "CCCN1C(=O)C[C@@H](N2CCOCC2)C1=O", "relative growth": "inactive: 1.01"}
{"smiles": "C[C@H]1CN([C@@H](C)CO)C(=O)CCCn2cc(nn2)CO[C@@H]1CN(C)C(=O)Nc1ccc(C(C)(C)C)cc1", "relative growth": "inactive: 1.01"}
{"smiles": "Cc1ccc(-c2ccc3c(c2)O[C@H](CN(C)C(=O)NC(C)C)[C@H](C)CN([C@H](C)CO)S3(=O)=O)cc1", "relative growth": "inactive: 1.03"}
{"smiles": "C[C@@H]1CN([C@@H](C)CO)C(=O)c2cc(C#CC3CCCC3)cnc2O[C@@H]1CN(C)C(=O)Cc1ccccn1", "relative growth": "inactive: 1.02"}
{"smiles": "CC(=O)Oc1ccccc1C(=O)Nc1ncc([N+](=O)[O-])s1", "relative growth": "inactive: 0.526"}
{"smiles": "COC(=O)c1cc(OC)c(OC)c(OC)c1", "relative growth": "inactive: 1.09"}
{"smiles": "COC(=O)C[C@H]1CC[C@@H]2[C@H](COC[C@H](O)CN2S(=O)(=O)c2cn(C)cn2)O1", "relative growth": "inactive: 0.945"}
{"smiles": "C[C@@H]1CN([C@@H](C)CO)C(=O)c2cc(NC(=O)Nc3cccc4ccccc34)ccc2O[C@@H](C)CCCCO[C@@H]1CN(C)C(=O)NC1CCCCC1", "relative growth": "inactive: 1.03"}
{"smiles": "COc1ccc(S(=O)(=O)Nc2ccc3c(c2)C(=O)N([C@H](C)CO)C[C@@H](C)[C@@H](CN(C)S(C)(=O)=O)O3)cc1", "relative growth": "inactive: 1"}
{"smiles": "C[C@@H]1CN([C@@H](C)CO)C(=O)Cc2cc(NC(=O)CCC(F)(F)F)ccc2O[C@H]1CN(C)S(=O)(=O)c1cn(C)cn1", "relative growth": "inactive: 0.977"}
{"smiles": "Cn1cc(-c2[nH]c3cc(NC(=O)[C@H](N)C4CCCCC4)cc4c3c2C=NNC4=O)cn1", "relative growth": "active: 0.161"}
{"smiles": "C[C@@H]1CN([C@@H](C)CO)C(=O)c2cc(NC(=O)c3ccncc3)ccc2O[C@@H](C)CCCCO[C@H]1CN(C)Cc1ccccc1", "relative growth": "inactive: 1"}
{"smiles": "O=C(C[C@@H]1C=C[C@H](NS(=O)(=O)c2ccccc2F)[C@@H](CO)O1)NCCCN1CCOCC1", "relative growth": "inactive: 0.979"}
{"smiles": "COCC(=O)N(C)C[C@@H]1Oc2cc(C#CCC3CCCC3)ccc2S(=O)(=O)N([C@H](C)CO)C[C@H]1C", "relative growth": "inactive: 1"}
{"smiles": "C[C@@H]1CN([C@@H](C)CO)C(=O)c2cc(NS(C)(=O)=O)ccc2O[C@@H]1CN(C)S(C)(=O)=O", "relative growth": "inactive: 1.02"}
{"smiles": "C[C@H](CO)N1C[C@H](C)[C@H](CN(C)CC2CC2)OCCCC[C@H](C)Oc2ccc(NC(=O)NC3CCCCC3)cc2C1=O", "relative growth": "inactive: 0.994"}
{"smiles": "c1cnc2nc[nH]c2c1", "relative growth": "inactive: 1"}
{"smiles": "CCCN(C)C[C@H]1OCCCC[C@@H](C)Oc2ccc(NC(=O)Nc3ccc(F)cc3)cc2C(=O)N([C@H](C)CO)C[C@@H]1C", "relative growth": "inactive: 1"}
{"smiles": "C[C@H](CO)N1C[C@H](C)[C@@H](CN(C)S(=O)(=O)c2ccc(Cl)cc2)OCCCC[C@H](C)Oc2ccc(NS(=O)(=O)c3ccc(F)cc3)cc2C1=O", "relative growth": "inactive: 0.976"}
{"smiles": "C[C@@H]1CCCCO[C@@H](CN(C)C(=O)NC2CCCCC2)[C@H](C)CN([C@@H](C)CO)C(=O)c2cc(NC(=O)CCC(F)(F)F)ccc2O1", "relative growth": "inactive: 0.99"}
{"smiles": "C[C@@H]1CCCCO[C@H](CN(C)C(=O)c2ccccc2)[C@@H](C)CN([C@@H](C)CO)C(=O)c2cc(NC(=O)CCC(F)(F)F)ccc2O1", "relative growth": "inactive: 1"}
{"smiles": "C[C@@H]1CN([C@H](C)CO)C(=O)Cc2cc(NS(=O)(=O)c3ccccc3)ccc2O[C@H]1CN(C)Cc1ccc(Cl)c(Cl)c1", "relative growth": "inactive: 1.01"}
{"smiles": "Cn1cnc(S(=O)(=O)N2C[C@H](O)COC[C@@H]3O[C@@H](CC(=O)N4CCN(c5ccccc5)CC4)CC[C@H]32)c1", "relative growth": "inactive: 1.01"}
{"smiles": "C[C@H](CO)N1C[C@H](C)[C@@H](CN(C)C(=O)C2CCCCC2)OCCCC[C@H](C)Oc2ccc(NC(=O)c3ccccc3)cc2C1=O", "relative growth": "inactive: 0.982"}
{"smiles": "COc1ccc(S(=O)(=O)Nc2ccc3c(c2)C(=O)N([C@H](C)CO)C[C@H](C)[C@H](CN(C)S(=O)(=O)c2ccc(Cl)cc2)OCCCC[C@@H](C)O3)cc1", "relative growth": "inactive: 0.996"}
{"smiles": "Br.CN1CCCC1Cc1c[nH]c2ccc(CCS(=O)(=O)c3ccccc3)cc12", "note": "(centres undefined)", "relative growth": "inactive: 1.02"}
{"smiles": "C[C@@H]1CN([C@@H](C)CO)C(=O)c2cc(NC(=O)NC3CCCCC3)ccc2O[C@@H]1CN(C)C(=O)Nc1ccc(C(F)(F)F)cc1", "relative growth": "inactive: 1.01"}
{"smiles": "CC(C)NC(=O)N(C)C[C@H]1Oc2c(NS(=O)(=O)c3ccc(Cl)cc3)cccc2C(=O)N([C@H](C)CO)C[C@H]1C", "relative growth": "inactive: 0.999"}
{"smiles": "C[C@H](CO)N1C[C@H](C)[C@@H](CN(C)C(=O)Cc2ccncc2)Oc2cc(C#CC3CCCCC3)ccc2S1(=O)=O", "relative growth": "inactive: 0.99"}
{"smiles": "C[C@H]1CN([C@@H](C)CO)C(=O)c2cc(NC(=O)CCCN(C)C)ccc2O[C@@H]1CN(C)Cc1ccccc1", "relative growth": "inactive: 0.98"}
{"smiles": "C[C@H](CO)N1C[C@H](C)[C@@H](CN(C)Cc2ccc3c(c2)OCO3)Oc2c(NS(C)(=O)=O)cccc2C1=O", "relative growth": "inactive: 0.999"}
{"smiles": "C[C@H]1CN([C@@H](C)CO)C(=O)c2cc(NC(=O)Nc3cccc4ccccc34)ccc2O[C@H]1CN(C)S(=O)(=O)c1ccccc1", "relative growth": "inactive: 1.02"}
{"smiles": "CC(C)NC(=O)N(C)C[C@@H]1Oc2ccc(NC(=O)C3CCCCC3)cc2C(=O)N([C@H](C)CO)C[C@@H]1C", "relative growth": "inactive: 0.926"}
{"smiles": "COc1ccc(CNC(=O)C[C@H]2C[C@@H]3c4cc(NC(=O)NC5CCCC5)ccc4O[C@@H]3[C@H](CO)O2)cc1", "relative growth": "inactive: 1"}
{"smiles": "C[C@@H]1CCCCO[C@@H](CN(C)Cc2ccncc2)[C@@H](C)CN([C@@H](C)CO)C(=O)c2cc(NS(=O)(=O)c3ccc(Cl)cc3)ccc2O1", "relative growth": "inactive: 1.02"}
{"smiles": "C[C@@H]1CCCCO[C@H](CN(C)S(=O)(=O)c2cccs2)[C@@H](C)CN([C@H](C)CO)C(=O)c2cc(NC(=O)C3CCCCC3)ccc2O1", "relative growth": "inactive: 1.02"}
{"smiles": "C[C@@H]1CN([C@@H](C)CO)C(=O)c2cc(NC(=O)CCCN(C)C)ccc2O[C@@H]1CN(C)Cc1ccc(C(=O)O)cc1", "relative growth": "inactive: 0.987"}
{"smiles": "COC(=O)/C=C/C(=O)O", "relative growth": "inactive: 0.999"}
{"smiles": "C[C@H](CO)N1C[C@H](C)[C@@H](CN(C)C(=O)c2cc(Cl)cc(Cl)c2)OCc2ccccc2-c2ccccc2C1=O", "relative growth": "inactive: 0.98"}
